Experimental data from article PMC12136788.
This is one part of the list.

B1: chr2:37227669:37227839:-|CDS|ENSG00000115816|unk|FALSE|unique (ssRNA)
RNA: GGGAGUUCUACAGUCCGACGAUCGUUUACUUUUGCUUUUUUCGGACUUGUGUCAAAAAAAAAGAUGUUGAAUCAAAAAUGCUUAGCGCCCUUUUAACAGGUGUGAAUAGGGCAUACCCUUAUUCCCAGACUGGUGAUGACAAACAACAGAGGAUUGAGCAUCA
B2: chr11:36273890:36273991:-|3pUTR|ENSG00000110442|msi1|FALSE|unique (ssRNA)
RNA: GGGAGUUCUACAGUCCGACGAUCGGUGAAGAAGUGGGAAUAAUUGGAACUAAACAACAGUUCUAAAACUUCCAUGAUUUUUGUAGCUUCUUUUGUCCCCAAGUUGAAGCUUUUGGCCAGUACCUUCUCUAGUUUUUAAAGAUGCAACAGAGGAUUGAGCAUCA
B3: chr8:73241459:73241605:-|CDS|ENSG00000274443|control|control|control (ssRNA)
RNA: GGGAGUUCUACAGUCCGACGAUCUGGCUUCAGUGAUCCUCUCACUGGAGCACCAUCUCAAUACUUAGAGAGACUUUCCAAAAUAGCCAUAUUGGAAUAUGAUACCAUUCGUCAGGAAACAACCACAAAAUCAAAAAAAAGCAACAACAGAGGAUUGAGCAUCA
B4: chr1:24839915:24840022:+|CDS|ENSG00000169504|unk|total|mutant (ssRNA)
RNA: GGGAGUUCUACAGUCCGACGAUCACCCUGCAGAAACUGGAUGAAUAUCUGAAUUCUCCUCUCCCUGAUGAAAUUGAUGAAAACCGUAUGGAGGACAUAAAGUUUUCUACACGUAAAUUUCUGGAUGGCAAUGAAAUGACAUUACAACAGAGGAUUGAGCAUCA
B5: ENSG00000149257:stop:overlap|stop_codon|ENSG00000149257|stop_codon|NA|stop_codon (ssRNA)
RNA: GGGAGUUCUACAGUCCGACGAUCCCCUGCUAUUCAUUGGGCGCCUGGUCCGGCCUAAGGGUGACAAGAUGCGAGACGAGUUAUAGGGCCUCAGGGUGCACACAGGAUGGCAGGAGGCAUCCAAAGGCUCCUGAGACACAUGGGCAACAGAGGAUUGAGCAUCA
B6: chr11:27366961:27367062:-|3pUTR|ENSG00000205213|msi1|FALSE|unique (ssRNA)
RNA: GGGAGUUCUACAGUCCGACGAUCUGAAUACUUCCUAAUAUCGUUGGCUCUACUAAUAUUUUCCAAUUUGCUGGGAUGUCACCUAGCAAUAGCUUGGAUUAUAUAGAAAGUAAACUGUGGUCAAUACUUGCAUUUAAUUAGACGCAACAGAGGAUUGAGCAUCA
B7: chr3:25596636:25596694:+|3pUTR|ENSG00000077092|msi1_unk|FALSE|overlapping (ssRNA)
RNA: GGGAGUUCUACAGUCCGACGAUCUCCCCAGUACCUUCAGUUCCAGGAUUUAAAAUGCAAGAAAAAACAUUUUUACUGCUGCUUAGUUUUUGGACUGAAAAGAUAUUAAAACUCAAGAAGGACCAAGAAGUUUUCAUAUGUAUCCAACAGAGGAUUGAGCAUCA
B8: chr11:73401874:73401975:-|3pUTR|ENSG00000054965|unk|total|mutant (ssRNA)
RNA: GGGAGUUCUACAGUCCGACGAUCUGCAGGGUUUGUCCUUUACUUAUCUGCCCCUUUCCCCGAAAACUCCUCGUUUCUGAAAUCCGGCAUUAUAUGGUUCCAGGACCCAGCCUUCAAAAUUCCUGGCAGGCCAGCUUCAACAUUCAACAGAGGAUUGAGCAUCA
B9: chr11:113276847:113276948:+|3pUTR|ENSG00000149294|msi1|total|mutant (ssRNA)
RNA: GGGAGUUCUACAGUCCGACGAUCAGAAGGGAAAAGCCAGCCCUUUGUACCGAAAUUUUGCUUUUUUUUCCCUCAUUCUACUUCCGAACUGCAAGCUUGUGCACUGUGGAUGCGUGAAUAUUUCCGUGUGAAACGUGUUUUUGUCAACAGAGGAUUGAGCAUCA
B10: chr1:180885316:180885399:+|3pUTR|ENSG00000143324|msi1_unk|total|mutant (ssRNA)
RNA: GGGAGUUCUACAGUCCGACGAUCUUGGCAGCCAUUUCUCCCAGCAGUUUUAAAGGAUGAACAUUGGAUUUCAUGCCAUCCCACCGAAAACCUGUUUUAAAAUUUCCGGGAUCUUUACUUGGUCAUACAUGAAAAGUACACUGCCAACAGAGGAUUGAGCAUCA
B11: ENSG00000070961:be:win_2101|CDS|ENSG00000070961|bound_else_gene|NA|bound_elsewhere_windowed (ssRNA)
RNA: GGGAGUUCUACAGUCCGACGAUCGGAAUUACUGUGCGGAUGGUCACUGGUGAUAAUAUUAAUACUGCUCGGGCCAUUGCUACCAAAUGUGGUAUUUUACAUCCUGGGGAAGAUUUUCUGUGCCUAGAAGGUAAAGAUUUUAACCAACAGAGGAUUGAGCAUCA
B12: ENSG00000143476:stop:overlap|stop_codon|ENSG00000143476|stop_codon|NA|stop_codon (ssRNA)
RNA: GGGAGUUCUACAGUCCGACGAUCCAUACUUCCAUAGAAAGUCCCAGGAGGACUUCUGUGGUCCUGAACACUCAACAGAAUUAUAGAUUCUAAUCUGAGUGAGUUACUGAGCUUUGGUCCACUAAAACAAGCUGAGCUUUGGUCCAACAGAGGAUUGAGCAUCA
B13: chr1:110340924:110341033:+|CDS|ENSG00000162775|unk|total|mutant (ssRNA)
RNA: GGGAGUUCUACAGUCCGACGAUCUGCUGCCUGGACCCAUAUGCGGGGCUUCCCACUUGGUGGCCCAGAUCGACGCCUCCGAGCCGACUUUGCCGACACCGAACAUCGUUACCAGCAGCAGUAUCUGCAGCCUCUGCCCUUGACCAACAGAGGAUUGAGCAUCA
B14: chr12:123586815:123586897:+|5pUTR_CDS|ENSG00000086598|msi1_unk|FALSE|overlapping (ssRNA)
RNA: GGGAGUUCUACAGUCCGACGAUCGAAUCCAGUGGGAAAUACACAUUUGCUGCUCACAUGGAUGGAACAUACAAAUUUUGUUUUAGUAACCGGAUGUCCACCAUGACUCCAAAAAUAGUGAUGUUCACCAUUGAUAUUGGGGAGCAACAGAGGAUUGAGCAUCA
B15: chr12:907890:907991:+|CDS|ENSG00000060237|msi1|FALSE|bound_elsewhere (ssRNA)
RNA: GGGAGUUCUACAGUCCGACGAUCGCCUCCUGCCAUGACGUCCAGCAGGAAGGGCACAUUCACAGAUGACUUGCACAAGUUGGUAGACAAUUGGGCCCGAGAUGCCAUGAAUCUCUCAGGCAGGAGAGGAAGCAAAGGGCACAUCAACAGAGGAUUGAGCAUCA
B16: chr2:200823707:200823808:+|3pUTR|ENSG00000082153|msi1|total|mutant (ssRNA)
RNA: GGGAGUUCUACAGUCCGACGAUCUGAGUAACUUUGAUAAAGUUUUUCAUGCACAGGCAAAAUGUAUUCACCCGAUUUCUACGCCGUGAUCUGCUUUUACUUUGUAAUUUGCCGUUCUCAAAAGACUUUUUUUUAAAAAAAUAACAACAGAGGAUUGAGCAUCA
B17: chr11:75572625:75572772:+|3pUTR|ENSG00000149257|msi1|FALSE|unique (ssRNA)
RNA: GGGAGUUCUACAGUCCGACGAUCUCUGGCGUUGUGGGGAUGAACUUUUUGUUUUGUUUCUUCCUUUUUUAGUUCUUCAAAGAUAGGGAGGGAAGGGGGAACAUGAGCCUUUGUUGCUAUCAAUCCAAGAACUUAUUUGUACAUCAACAGAGGAUUGAGCAUCA
B18: chr15:63694043:63694144:-|CDS|ENSG00000103657|unk|FALSE|unique (ssRNA)
RNA: GGGAGUUCUACAGUCCGACGAUCAGGACCUAUGCUGAUAAACUGAGUCCCAAAGUAGUUCAAUCCUUGUUGGAUCUACUCUGUAGUCAGUUGAAGAAUUUAUUGUCCCAAACUGGUGUACUACAUAUGGCCUCUUUCGGAGAACAACAGAGGAUUGAGCAUCA
B19: ENSG00000169908:stop:overlap|stop_codon|ENSG00000169908|stop_codon|NA|stop_codon (ssRNA)
RNA: GGGAGUUCUACAGUCCGACGAUCGAGGCAUAUGUGGCUUUUGCUGCUCUCACCAACAGGUAAGAACCUGCAUGAAAAUGUCGUAGUCUGGCCCUGGUGUUAAUAUACCAUUGUUUUCAUCAUAAAGAAAAAGGCAAAACCAAACAACAGAGGAUUGAGCAUCA
B20: chr2:134980819:134981518:-|CDS|ENSG00000176601|control|control|control (ssRNA)
RNA: GGGAGUUCUACAGUCCGACGAUCUGCUUGCAAGAGAACACUGUGAGCAUUUUCAUGGAGUUUGUUCCUGGUGGCUCAAUCUCUAGUAUUAUAAACCGUUUUGGGCCAUUGCCUGAGAUGGUGUUCUGUAAAUAUACGAAACAACAACAGAGGAUUGAGCAUCA
B21: chr1:91680342:91683857:-|three_prime_utr|ENSG00000069702|control|control|control (ssRNA)
RNA: GGGAGUUCUACAGUCCGACGAUCGUGCUGCCCACAGCAUCGGCAGCACGCAGAGCACGCCUUGCUCCAGCAGCAGCACGGCCUAGCCCAACCCAGCCCAACCCGGCCCAACCCAGCCCAGCCCAGCUCAGCUCAGCUACUGCCCAACAGAGGAUUGAGCAUCA
B22: ENSG00000107863:be:win_1301|CDS|ENSG00000107863|bound_else_gene|NA|bound_elsewhere_windowed (ssRNA)
RNA: GGGAGUUCUACAGUCCGACGAUCCUUUGCAGGGACGACGUCGAAGCACCUCUCAUGAUCGAGUGCCCCAGUCUGUCCAGAUACGGCAACGCAGUGUGUCCCAAGAAAGACUGGAAGAUUCUGUGCUAAUGAAGUAUUGUCCAACAACAGAGGAUUGAGCAUCA

Molecular target: MSI1 full-length (mouse, UniProt Q61474 1-362)
Sequence of UniProt Q61474 (Q61474 whole entry): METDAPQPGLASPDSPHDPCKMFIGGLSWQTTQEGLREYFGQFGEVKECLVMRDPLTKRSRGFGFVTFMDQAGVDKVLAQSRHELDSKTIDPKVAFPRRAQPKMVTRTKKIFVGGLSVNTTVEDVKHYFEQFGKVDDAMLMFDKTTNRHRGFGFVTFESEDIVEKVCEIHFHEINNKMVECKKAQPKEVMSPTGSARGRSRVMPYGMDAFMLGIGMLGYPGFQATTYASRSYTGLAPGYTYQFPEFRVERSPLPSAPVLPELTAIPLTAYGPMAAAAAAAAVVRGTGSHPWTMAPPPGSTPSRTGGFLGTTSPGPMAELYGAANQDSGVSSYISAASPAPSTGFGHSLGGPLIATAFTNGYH
Assay: nsRBNS (natural sequence RNA bind-n-seq); RBNS binding buffer (assumed for nsRBNS): 25 mM Tris pH 7.5, 150 mM KCl, 3 mM MgCl2, 0.01% Triton X-100, 500 ug/ml BSA, 20 U/ml SUPERase-In, 4 C; UNK is unkempt and MSI1 is Musashi-1; names of the RNAs are library labels; protein concentration not given here; high values mean tight binding

Binder	binding signal [enrichment R]
B1	0.227
B2	0.705
B3	0.542
B4	0.192
B5	0.828
B6	0.875
B7	0.346
B8	0.588
B9	0.205
B10	0.166
B11	0.362
B12	0.943
B13	0.403
B14	0.443
B15	0.44
B16	0.312
B17	0.518
B18	0.197
B19	0.307
B20	0.338
B21	0.618
B22	0.274
